Laboratory results taken from PubChem BioAssay AID686978 (National Center for Advancing Translational Sciences (NCATS), 2013).
Among all 420,000 compounds or so, about 64,000 (15%) were called active. This list was built around the results that the source calls inconclusive (neither active nor inactive); the mix of calls is not that of the screen. The call rests on the fitted dose curve; in most records, active means well fitted inhibition curve with a large enough effect; inconclusive means small, poorly fitted or top-dose-only effect; inactive means flat fitted curve, though single readings scatter. No potency is given beside an inconclusive call; the fits are too rough.

Test: qHTS for Inhibitors of human tyrosyl-DNA phosphodiesterase 1 (TDP1): qHTS in cells in absence of CPT; further: nearly all actives have a fitted effect of over 55% in size
Conditions: DT40 Tdp1-/- hTDP1 cells, no CPT, ATP luminescence, 48 h; activity change, negative = growth inhibition: at 46.2 µM (top of the series) unless noted
Outline: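 DT40 Tdp1-/-;hTDP1 cells, no CPT (DMSO vehicle only), 400 cells/well; compounds pin-transferred; ≥48 hr, 37 °C; CellTiter-Glo 30 min RT dark, luminescence read.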
On the % scale 0 is the no-effect control and ±100 the full control effect; potency means the concentration at half of the fitted maximal effect; tags describe the fitted curve by direction and shape.

| SMILES | Potency | activity change, negative = growth inhibition |
| --- | --- | --- |
| Cc1nc(-c2ccc(S(=O)(=O)N3CCCCCC3)cc2)cs1 | inconclusive [inhibitor, single point] | – |
| Cc1csc2ncnc(NNC(=O)c3ccc(Cl)cc3)c12 | active: 10.3 µM | – |
| CN(C)S(=O)(=O)c1ccc(NC(=O)N2CCN(c3ccccc3Cl)CC2)cc1 | – | inconclusive: -34.9% [inhibitor] |
| Cc1c(C(=O)N2CCCC2)c(S(=O)(=O)Nc2cccc(Br)c2)c(C)n1C | inactive | – |
| COc1ccccc1CCNC(=O)C(=O)NCC(c1cccs1)S(=O)(=O)c1ccccc1 (stereo not given) | inconclusive [inhibitor, single point] | – |
| CCc1nc(SCC(=O)O)c(C#N)cc1C | inactive | – |
| COC(=O)c1ccc(N2CCN(C)CC2)c(NC(=O)c2ccc(Br)o2)c1 | inconclusive [inhibitor, partial curve] | – |
| COC(=O)CC1C(=O)NCCN1C(=O)Nc1ccccc1 (stereo not given) | inactive | – |
| COc1ccc(N2CCN(C(=O)C3CCN(S(=O)(=O)c4ccc(C)cc4)CC3)CC2)cc1 | inconclusive [inhibitor, partial curve, poor fit] | – |
| CCOc1ccc(NC(=O)CN(C)C(=O)c2sccc2-c2ccccc2)cc1OCC | inconclusive [inhibitor, single point] | – |
| CC(C)CCNC(=O)[C@@H](Cc1ccccc1)NC(=O)CC[C@H]1O[C@@H](n2ccc(=O)[nH]c2=O)[C@H](O)[C@@H]1O | inactive | – |
| CC(C)N1C(=O)c2ccccc2NC(=O)C1C(=O)NCc1cccs1 (stereo not given) | inactive | – |
| CC(=O)c1ccc(N=C2C(=O)Nc3ccccc32)cc1 | active: 13 µM | – |
| Cc1ccc(CCN2CC(C(=O)NC3CCCC3)CC2=O)cc1 (stereo not given) | inactive | – |
| COc1c2ccoc2nc2c(OC)c(OC[C@@H](O)C(C)(C)O)ccc12 | inconclusive [inhibitor, single point] | – |
| O=[N+]([O-])c1cccc(C(=Nc2ccccc2)NO)c1 | inconclusive [inhibitor, partial curve] | – |
| N#Cc1c(C(F)(F)F)cc(-c2ccc(Cl)cc2)nc1SCC(=O)O | – | inconclusive: -30.4% [inhibitor] |
| Cc1ccc(Cn2ccc(-c3cnc(-c4ccccc4)s3)n2)cc1 | inconclusive [inhibitor, single point] | – |
| Cc1cccc(Cn2c(=O)n(Cc3ccccc3)c(=O)c3oc4ccccc4c32)c1 | inconclusive [inhibitor, partial curve] | – |
| Cc1ccc(Sc2ccc(N3CCC(C(=O)Nc4ccc(C)c(F)c4)CC3)nn2)cc1 | inconclusive [inhibitor, single point] | – |
